# Test results reported in publication PMC10726135.
# This is one part of the list. At the low end of the ranking the order means little. Measured with an extract: partners may take part in the binding.
# Molecular target: T1, HNF4alpha2 (COS-7 nuclear extract) (UniProt P41235)
# T1 sequence: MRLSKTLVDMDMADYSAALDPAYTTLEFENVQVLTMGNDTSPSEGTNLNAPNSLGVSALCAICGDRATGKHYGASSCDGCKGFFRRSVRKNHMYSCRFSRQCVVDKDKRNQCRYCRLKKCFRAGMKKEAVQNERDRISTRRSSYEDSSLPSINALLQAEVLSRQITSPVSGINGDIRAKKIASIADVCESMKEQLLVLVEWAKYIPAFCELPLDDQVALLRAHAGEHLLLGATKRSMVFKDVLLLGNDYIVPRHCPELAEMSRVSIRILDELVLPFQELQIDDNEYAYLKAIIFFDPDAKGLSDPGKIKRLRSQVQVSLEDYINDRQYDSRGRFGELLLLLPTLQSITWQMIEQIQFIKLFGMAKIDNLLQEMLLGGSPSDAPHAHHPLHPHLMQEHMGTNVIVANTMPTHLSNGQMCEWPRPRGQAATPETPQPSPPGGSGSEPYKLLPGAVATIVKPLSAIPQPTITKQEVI
# Experiment: protein-binding microarray
# Conditions: COS-7 nuclear extract on double-stranded Agilent 4x180k PBM; binding buffer, salt, pH and temperature not given; high values mean tight binding; double strand, one strand shown; sequences stand for … in …GCCTAGGGAGATTAGAGTATCGGTCGA
row,Sequence,binding signal (log2 normalized intensity)
1,GCACACTCGCCTGGCTCCCCACGTGGCAAT,-1.14
2,CTCCACCTGGAGGGACTTTGTCCCACAGGA,3.51
3,TCCAAGATCCAACTCTGAAGATTCACAGGT,-1.09
4,CGCCGCGGGCGCCCTGGTCTCTGCTACCTG,-1.15
5,GTGACCTTTGCTCCAGTTCCCAATAAGTTG,4.19
6,TGGCCCAAGGCCTCTGACATAAATCACATT,-0.63
7,ACAAGCAACCCTCCTCCCTTTGGCCATGAA,1.54
8,GATGCCATTCCCTGCAGGTGAAACTCCAGG,-1.02
9,TTGTGCTAGAAAGAATGAGAAGGGCTAATA,-1.13
10,GCCCCTGGCTGGGCCCTGACCTCAAGTGAC,1.91
11,GCTACAACTGGACTAGACAGGCTTGTCGAG,-1.17
12,GGAAATGAATTGATAAACACTTGCCTACTT,-1.14
13,CCACAGCGTTTTCCTCCAGCCTGTCGGAAT,-0.971
14,TTGATCCAGGATCCTTCTTGACCAGGCAAG,-0.434
15,TCTTGTAAGGTTCTTGTATCTGATCTGTGT,2.4
16,CATCTCAAAGGCATTTTTTGTAGATGCCTG,0.801
17,GGGGGTTTGCAACCTTTGATAACCTACAAC,1.03
18,GAAACCTAGGAGTTATCTAAGACCCATCCC,1.29
19,TACGAAGGGTTTAAAGGGCAGAAGAAGGGA,0.686
20,CAAACATTAGCTGCAGATTCCACCTTAGAG,-0.782
21,GTATCTGACTTTATCATTGGACTCTCTCAT,3.01
22,AGCCAGGCAGTCGGGAAATTCCAGCAGGAA,-1.23
23,ACTGACTGCTTTATCAGTGTAGTTTGAAGC,1.58
24,AGGTTCCATGGTGTAATGGTTAGCACTCTG,0.735

row,Sequence,binding signal (log2 normalized intensity)
1,ATGTATGCATAGACTGCCCAGAATTTCCTG,-1.05
2,GGTCTAAGGGCAAGTGACTGATAAGGCTAA,-1.06
3,ATAACCTACTTAAAAAGAAATAGCCTGAAA,-1.07
4,CAATATCGCAGTCATAAATACTCATTATGT,0.167
5,TCTGTTGTGTCAAAGGTCACTTAGTCCCTA,4.39
6,TACGCAAGTGGTACCTCCCGAAAGTGACCC,4.42
7,GAATTAACTAAAAGTATCTAAGGGCCTAGA,-1.1
8,CTCAAGCTCTCCTCTTATCAGGCAGGATAT,0.862
9,ATGGTGCTGGCGGGAGCATAGCAGCGAGGA,-1.07
10,CCTAGGGGGAAGCCCCTGCTTCCGGACACA,-1.12
11,TGGGGTATGTGCTCACTCCTGGGACAAGGA,-1.11
12,GGGCTTCCAGGCTTGGAGCCCCTTTGGAGG,-1
13,AGCAATAGGAAATGGGAGGGTAAATTCCTT,-0.838
14,GCTTGAAAAGTCTTTCTGCCAAAGTTCAGC,2.04
15,GAGCCTGCACGCCTGTTCACATTCCAGTGT,-0.595
16,GAAACGGGATTTCTTTATATTATGCTAGAC,0.0814
17,TCGCAGACTTTGGACTCTGCAAGGAAGGTG,4.93
18,GAGGTTTTCATCCCAGGGCTGGGGAAACAA,-0.87
19,AAAGGGTCTTAGTATTAACGGTGAGGGAGG,-0.973
20,GGTCTGCAATCTAAGTCTGGCTCCTGAAAC,-1.25
21,ACACTCCTTGTTCTCAGAGATCAAAGGTGA,4.36
22,ACCACATTCTCACCACTAGGAAACTGACCT,3.23
23,TCATGTCACGTTGGGGGTGCTGATGTTAAC,1.49
24,GCATGGAATGACTTTGGGGAAATGACCTTT,7.23

row,Sequence,binding signal (log2 normalized intensity)
1,CTCTGCCACTGGTTTGCACACACCAAAGCC,-1.02
2,CTTTCTCCTCCCCTCCCCTCCCCCCACTCA,6.94
3,ACTGACCTTTGAGAGTCAACACTGAAATAG,1.42
4,GGGATTTGTACAAGTGATTGGATCTGAGAT,0.237
5,AGCCTTGCAGATAAGCCACGAGCCTGCCTG,-1.02
6,CTTATGCTGAATTCCCATCTAAGACTTTAT,-0.47
7,GCCTCCTCCATCTCCTCCACCAGCTTGCTG,-1.09
8,GACCCATCCCTCAGGGTCCATATCCAATAA,2.04
9,AGGCTTAGGCCAGGCGGAGCACACCAGGCC,-1.23
10,GGGGCCTAGCTTGTAAAGGGTAATCTGCTT,-1.02
11,AGCAAACACAAACTATGACCTTTGAAACTT,7.13
12,CTCAGCTCCTAAAGGCAGCCCCTTATCAGG,-1.15
13,ATCTTGCTGTACACTCAGGTCTTTCTGGAG,1.44
14,ATTCTTTCTGATAAGAGCATTTTTGTATGC,1.5
15,CTCCGCCTCCCTCCCCCTTTCTCCGCTAAG,3.25
16,TAACATTGCTGACCCCCTACATAGAGAGCA,2.89
17,ACAAGTGAAAGTCTAAAGTTCAGTGAGATT,3.35
18,CTTAGAAAGAGGGTGTAAGAGTGAACTCTG,2.12
19,ACTTCTTTGAAGAAGACAAAACAGCGTACT,-0.893
20,AGAGCTCTGTGCCTTTCTCTGCAGCTTAAA,-1.14
21,GTGACTGAAGTCCAACCCTCCGTTTCTCTG,1.42
22,TTGAGTCTGGTGTTCTCTTGGCCAACAACT,-0.0451
23,AAGTTCAACCTCATTATCTTCAGTCTAGAA,0.403
24,AGTAGATAACTTCAAGGAGCTCGGCGCCAG,-1.01

row,Sequence,binding signal (log2 normalized intensity)
1,TGTCTACCCTTTTGCCCTTTGAGCTTCTGT,5.21
2,ACCCCTTGCAAATAAGTCCGGCAGAGCTAT,-0.0464
3,AGTCCAAATTCCTAACTATGGTTGATAAGG,0.0407
4,ATTTCTAGGTTTGATCTTTGCCCTACAATT,5.51
5,ATCTCGTGTCTTTCATCTCTGTAAACTGGC,1.84
6,ACTCAGGTCATCAGGACTCTAACTGGCTTT,-0.721
7,GACCTCTGCCCTTCCACCCACTTTATCTTC,3.26
8,TCCTTTGTTTAGACTTGGGGCCAAAAAATT,1.62
9,CCAAGACCAAGCAAGCCAGTCAGAATCTCT,-1.08
10,GTGAACCTTTGTCCCGTTATGGCACCAAGA,0.871
11,TGATGAAACTCCTTCCCTTTCATGTTGAAC,1.69
12,CTCATGTGGTCCTAAGACTGACCTTTGATC,10.1
13,TAGAAGCTGAGCAGCAATCAGCTCCTCAAC,-1.3
14,AATCCTCCCACCTCAGCATCCCAAGTAGCT,1.58
15,TGCTCGGCATCCCTGCCGTGGCTGGAACTC,-1.08
16,ACCCCTCCGGCAGCGGCCGGAAAAAGTGAG,1.79
17,CCAAGCCACCTTCCCGGCCTGGCCACTCCG,-1.12
18,ATAGTTCTCATGGCTCATTTTGGGCATCTG,1.35
19,TTAGCTTGGACAGAGTTTGTGGTGTTTGTG,2.05
20,TATGCACTCTCACCTTGGGGGCTGCTGGGG,-0.636
21,TATTGTGAAGTGATAGCTAATGGAAAGCTT,-1.08
